{
  "source": "the BET-seq Pho4 binding data (Le et al. 2018)",
  "note": "The list shows a part of the results. These are noisy estimates, calculated here from bound and input reads.",
  "data": [
    {"molecular_target": "T1, Pho4 (S. cerevisiae) (UniProt P07270)", "T1 sequence": "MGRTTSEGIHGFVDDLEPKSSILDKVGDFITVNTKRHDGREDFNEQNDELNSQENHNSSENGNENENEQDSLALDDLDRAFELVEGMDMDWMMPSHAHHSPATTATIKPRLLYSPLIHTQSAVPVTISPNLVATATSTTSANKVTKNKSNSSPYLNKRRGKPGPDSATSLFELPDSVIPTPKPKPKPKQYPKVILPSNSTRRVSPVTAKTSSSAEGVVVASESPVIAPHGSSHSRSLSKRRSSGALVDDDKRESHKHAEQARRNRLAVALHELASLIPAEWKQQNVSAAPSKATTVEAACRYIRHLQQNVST", "assay": "relative binding free energy (BET-seq); higher = weaker binding", "conditions": "reference: library average", "units": {"relative binding free energy": "kcal/mol"}, "values": [
      {"sequence": "TTGATCACGTGCGGCA", "relative binding free energy": 0.18},
      {"sequence": "GGGGTCACGTGGGACA", "relative binding free energy": 0},
      {"sequence": "GAGCTCACGTGAGGTG", "relative binding free energy": 0.36},
      {"sequence": "GTACTCACGTGTTGTA", "relative binding free energy": 0.31},
      {"sequence": "TGAAGCACGTGGAATT", "relative binding free energy": 0.17},
      {"sequence": "AGAGACACGTGTAAGT", "relative binding free energy": 0.23},
      {"sequence": "GTTGGCACGTGGTGGC", "relative binding free energy": -0.15},
      {"sequence": "TCTTACACGTGTGGGA", "relative binding free energy": 0.01},
      {"sequence": "TGTTCCACGTGGGATG", "relative binding free energy": -0.09},
      {"sequence": "CAGCGCACGTGGGGTT", "relative binding free energy": -0.26},
      {"sequence": "ATGGGCACGTGCCGTT", "relative binding free energy": -0.27},
      {"sequence": "AAGGGCACGTGTAAAG", "relative binding free energy": -0.03},
      {"sequence": "GGGGCCACGTGGTCTT", "relative binding free energy": 0},
      {"sequence": "TTGATCACGTGTCGTA", "relative binding free energy": 0.11},
      {"sequence": "AGGGGCACGTGACTTT", "relative binding free energy": 0.02},
      {"sequence": "AGGTTCACGTGTTGCG", "relative binding free energy": 0.25},
      {"sequence": "AGGTTCACGTGCGTTG", "relative binding free energy": 0.28},
      {"sequence": "TAGTGCACGTGTGGTG", "relative binding free energy": 0.08},
      {"sequence": "GTTAACACGTGTAGAA", "relative binding free energy": 0.14},
      {"sequence": "AGGTACACGTGCTAGG", "relative binding free energy": -0.06},
      {"sequence": "TATCGCACGTGGGGAC", "relative binding free energy": -0.02},
      {"sequence": "TTATTCACGTGGTTCG", "relative binding free energy": 0.22},
      {"sequence": "TTAGGCACGTGAATAT", "relative binding free energy": 0.03},
      {"sequence": "AGGCTCACGTGGTTTT", "relative binding free energy": 0.2},
      {"sequence": "TGTAACACGTGGCTGG", "relative binding free energy": -0.03},
      {"sequence": "AGGGACACGTGAAGAG", "relative binding free energy": 0.2},
      {"sequence": "AGAATCACGTGCTGTT", "relative binding free energy": 0.13},
      {"sequence": "GGTGACACGTGCTGGG", "relative binding free energy": -0.1},
      {"sequence": "GCATTCACGTGGGGGT", "relative binding free energy": 0.18},
      {"sequence": "GTAGGCACGTGGTAAA", "relative binding free energy": 0.05},
      {"sequence": "AGATTCACGTGGTGTC", "relative binding free energy": 0.11},
      {"sequence": "AATTACACGTGATTGG", "relative binding free energy": 0.08},
      {"sequence": "AGCTTCACGTGGATGT", "relative binding free energy": 0.25},
      {"sequence": "TCATGCACGTGCTTGT", "relative binding free energy": -0.04},
      {"sequence": "AGCGCCACGTGGGTGG", "relative binding free energy": -0.26},
      {"sequence": "CGTGTCACGTGGCAGG", "relative binding free energy": -0.08},
      {"sequence": "GTTCGCACGTGTTTGC", "relative binding free energy": 0.05},
      {"sequence": "AGCGGCACGTGTGGAA", "relative binding free energy": -0.07},
      {"sequence": "TGTAACACGTGGTTGT", "relative binding free energy": -0.12},
      {"sequence": "GTGGCCACGTGTGAGA", "relative binding free energy": 0.04},
      {"sequence": "GGGTTCACGTGTTCCG", "relative binding free energy": 0.36},
      {"sequence": "GGCAGCACGTGTAGGG", "relative binding free energy": -0.01},
      {"sequence": "GTAGTCACGTGGGCTT", "relative binding free energy": -0.05},
      {"sequence": "CTGGTCACGTGAAAGT", "relative binding free energy": 0.4},
      {"sequence": "TTGAACACGTGGGAGG", "relative binding free energy": -0.01},
      {"sequence": "AGGTGCACGTGATTTA", "relative binding free energy": 0.02},
      {"sequence": "TTGGACACGTGGGGCT", "relative binding free energy": -0.21},
      {"sequence": "TGATTCACGTGGTATT", "relative binding free energy": 0.2},
      {"sequence": "AGTTACACGTGGTACG", "relative binding free energy": 0.04},
      {"sequence": "GGTGGCACGTGGACGG", "relative binding free energy": -0.01},
      {"sequence": "TTAGACACGTGTAGCT", "relative binding free energy": 0},
      {"sequence": "ATCGGCACGTGGCTGG", "relative binding free energy": -0.22},
      {"sequence": "AAGTTCACGTGGTACT", "relative binding free energy": 0.34},
      {"sequence": "ATATTCACGTGGCTTA", "relative binding free energy": 0.23},
      {"sequence": "TCCATCACGTGTGGTT", "relative binding free energy": 0.24},
      {"sequence": "TGGTGCACGTGGTGCC", "relative binding free energy": -0.07},
      {"sequence": "TTGAGCACGTGGGCAG", "relative binding free energy": -0.26},
      {"sequence": "TGTAGCACGTGAGTAT", "relative binding free energy": 0.19},
      {"sequence": "TGAAACACGTGGTTAG", "relative binding free energy": 0.01},
      {"sequence": "TCGTACACGTGTGTGG", "relative binding free energy": 0.08},
      {"sequence": "TCTAGCACGTGTAGGT", "relative binding free energy": 0},
      {"sequence": "AGTAGCACGTGTATTA", "relative binding free energy": 0},
      {"sequence": "TGGTGCACGTGGCGTT", "relative binding free energy": -0.21},
      {"sequence": "GTGGACACGTGATTGT", "relative binding free energy": 0.22},
      {"sequence": "CTCTTCACGTGGGTTT", "relative binding free energy": 0.18},
      {"sequence": "AATTACACGTGGAGTG", "relative binding free energy": 0.15},
      {"sequence": "GGTCACACGTGGGGAT", "relative binding free energy": -0.02},
      {"sequence": "CTTGTCACGTGTTAAT", "relative binding free energy": 0.18},
      {"sequence": "TTTTACACGTGAGGCA", "relative binding free energy": 0.34},
      {"sequence": "ACTGACACGTGATTGG", "relative binding free energy": 0.19},
      {"sequence": "GGTGCCACGTGTTGCT", "relative binding free energy": -0.07},
      {"sequence": "TCGAACACGTGCTGGG", "relative binding free energy": 0.2},
      {"sequence": "TTAATCACGTGGAAGA", "relative binding free energy": 0.22},
      {"sequence": "GGGTTCACGTGCCGGA", "relative binding free energy": 0.21},
      {"sequence": "TTGTGCACGTGCGGGT", "relative binding free energy": -0.02},
      {"sequence": "GGCGTCACGTGTGATA", "relative binding free energy": 0.18},
      {"sequence": "TATGTCACGTGGTGTA", "relative binding free energy": -0.1},
      {"sequence": "TTTTTCACGTGCGGCA", "relative binding free energy": 0.3},
      {"sequence": "GTGTACACGTGTAATG", "relative binding free energy": 0.2},
      {"sequence": "CTAGACACGTGGATTT", "relative binding free energy": 0.21},
      {"sequence": "TATGTCACGTGGCGTG", "relative binding free energy": 0.08},
      {"sequence": "GGACGCACGTGAGTGG", "relative binding free energy": 0.11},
      {"sequence": "TGGTTCACGTGGAGGG", "relative binding free energy": 0.22},
      {"sequence": "ACGTACACGTGCGTGT", "relative binding free energy": -0.01},
      {"sequence": "CGCGTCACGTGTGGGC", "relative binding free energy": 0.11},
      {"sequence": "AATGGCACGTGGTCTT", "relative binding free energy": -0.16},
      {"sequence": "GCGTGCACGTGTGGTC", "relative binding free energy": 0.16},
      {"sequence": "GTGTGCACGTGTGGAT", "relative binding free energy": 0.1},
      {"sequence": "GGTTTCACGTGGCCAT", "relative binding free energy": 0.3},
      {"sequence": "GGGTGCACGTGAGAAG", "relative binding free energy": 0.38},
      {"sequence": "TGTGTCACGTGGCGAT", "relative binding free energy": 0.05},
      {"sequence": "GGTGGCACGTGACGGG", "relative binding free energy": 0.08},
      {"sequence": "GTATTCACGTGGTTTC", "relative binding free energy": 0.32},
      {"sequence": "AAATGCACGTGGTTAG", "relative binding free energy": -0.19},
      {"sequence": "GTTGTCACGTGTCGTA", "relative binding free energy": 0.09},
      {"sequence": "AGGGTCACGTGGGTAG", "relative binding free energy": 0.02},
      {"sequence": "TCGAGCACGTGTGGGG", "relative binding free energy": -0.06},
      {"sequence": "GGCAACACGTGAGGGG", "relative binding free energy": 0.19},
      {"sequence": "ACTTGCACGTGGGGTG", "relative binding free energy": -0.19},
      {"sequence": "GTGTCCACGTGGTAAT", "relative binding free energy": 0.16},
      {"sequence": "TGTGTCACGTGTCCGA", "relative binding free energy": 0.06},
      {"sequence": "TATTGCACGTGGCTTT", "relative binding free energy": -0.03},
      {"sequence": "AGTTTCACGTGGTCCT", "relative binding free energy": 0.27},
      {"sequence": "AGGAGCACGTGAGCGG", "relative binding free energy": 0.13},
      {"sequence": "TGGAACACGTGAAGGT", "relative binding free energy": 0.19},
      {"sequence": "AGGAGCACGTGCTGTG", "relative binding free energy": -0.15},
      {"sequence": "TTTAGCACGTGCTTTT", "relative binding free energy": -0.04},
      {"sequence": "CGTGTCACGTGATGAT", "relative binding free energy": 0.26},
      {"sequence": "ATGTTCACGTGTGTGA", "relative binding free energy": 0.24},
      {"sequence": "TTGCTCACGTGGGGCG", "relative binding free energy": 0.11},
      {"sequence": "AATTCCACGTGTAGGT", "relative binding free energy": 0.18},
      {"sequence": "TGGACCACGTGAATGT", "relative binding free energy": 0.34},
      {"sequence": "GTTGACACGTGTTAAG", "relative binding free energy": 0.09},
      {"sequence": "GTTAGCACGTGGAGGT", "relative binding free energy": -0.01},
      {"sequence": "TGTAACACGTGAGATA", "relative binding free energy": 0.24}
    ]}
  ]
}
